For part of its entries the source gives two or more results. This list holds those alone. An entry can have further records. Results that share an entry are repeats in other runs, samples, wells, individuals or studies. Counts like (3×) give the number of equal values in this list.
Test system: LG0703-F948-PDC spheroids with HUVEC/MSC, viability
Test: Anticancer human tumor LG0703-F948-PDC patient-derived lung adenocarcinoma cell line growth inhibition [IpAb]
Conditions: for viability, T/C: stronger effect = lower value
From the text: Combinatorial screen of targeted agents with ipatasertib and abemaciclib in multi-cell type tumor spheroids
A high-throughput screen of multi-cell type tumor spheroids was designed to identify active combinations of targeted small molecules and ipatasertib or abemaciclib. Complex spheroids include a stromal component modeled by human endothelial cells (HUVEC) and fibroblasts modeled by human mesenchymal stem cells (MSCs). The concentration ranges selected for each drug and investigational agent were based upon clinically achievable concentrations if the clinical Cmax of the agent was known.
Compounds. The drugs and investigational agents: ipatasertib (NSC767898), abemaciclib(NSC768073), selumetinib (NSC741078), trametinib (758246), adavosertib (NSC754352), everolimus (NSC733504), sapanisertib (NSC764658), vemurafenib (NSC761431), venetoclax (NSC766270), copanlisib (NSC809693), apelisib (NSC765974), palbociblib (NSC758247), vemurafenib (NSC761431), dabrafenib (NSC764134), ravoxertinib (NSC781343), BMS-387032 (NSC767048), sotorasib (NSC818433), talazoparib (NSC767125) and afursertib (NSC778305), were obtained from the National Cancer Institute (NCI) Developmental Therapeutics Program Chemical Repository. The FDA-approved anticancer drug set is available from the NCI Developmental Therapeutics Program. […] The stock solutions were prepared in dimethyl sulfoxide (DMSO, Sigma-Aldrich, St. Louis, MO, cat. D2650) at 800-fold the tested concentration and stored at -70 degrees C prior to their use. All drugs and investigational agents were tested over a range starting from a high concentration at or near the clinical Cmax and decreasing in half-log increments. If the clinical Cmax for an agent had not been determined, the highest concentration tested was 10 microM.
NCI60 Cell Culture. NCI60 cell lines were obtained from the NCI Developmental Therapeutics Program Tumor Repository. For each lot of cells, the Repository performed Applied Biosystems AmpFLSTR Identifiler testing with PCR amplification to confirm consistency with the published Identifier STR profile for each cell line. Cells were kept in continuous culture for no more than 20 passages. The optimal seeding densities for each of the cell lines at each time point assessed were determined prior to performing the concentration response studies. Briefly, the NCI60 human tumor lines were grown as monolayers in RPMI 1640 medium supplemented with 10% FBS and 2 mmol/L L-glutamine. […]
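Further: spheroids exposed to compounds for seven days before readout.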
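Wherever viability, T/C is given: T/C percent relative to DMSO vehicle wells set as 100% viability.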

CC(C)NCC(C(=O)N1CCN(c2ncnc3c2C(C)CC3O)CC1)c1ccc(Cl)cc1 (centres undefined)
viability, T/C (compound alone 1 µM): 40, 46.6, 65.2, 47.6, 52, 56.3, 54.7, 54.8, 50, 51.9, 50.3, 45.3, 56.4% | IC50 (compound alone, run of 06/01/2021): 530 nM, 851 nM, 3.78 µM, 850 nM, 1.45 µM, 2.16 µM, 1.53 µM, 1.52 µM, 1.23 µM, 933 nM, 1.8 µM, 748 nM, 2.04 µM

CCN1CCN(Cc2ccc(Nc3ncc(F)c(-c4cc(F)c5nc(C)n(C(C)C)c5c4)n3)nc2)CC1
viability, T/C (compound alone 0.01 µM): 94.3, 94.6, 98.5, 97.8, 108, 97.1 (2×), 96.2, 96.7, 106, 85.4, 98.9, 112% | viability, T/C (compound alone 1 µM): 90.4, 69.4, 83.6, 78.5 (2×), 97.2, 81.9, 71.9, 72.4, 99.9, 71.5, 86.5, 85.2%

Reference: PubChem BioAssay AID2060330 (Molecular Pharmacology Branch, DTP, NCI, 2025)
